Our source for the growth values is the supplement of paper PMC10986608.

Each structure is given as a SMILES string. This is one part of the list. Many values rest on one well or one pass, so single values are uncertain.

This assay relates to Candida albicans DPL-15. Description: growth (OD600) after compound treatment (apparently relative to screen median) (relative growth (fraction; screen median 1.02)); DPL-15 is a caspofungin-resistant clinical isolate; higher = more fungal growth (less antifungal activity). The following applies: 25 µM; RPMI 1640; 48 h; 30 °C.
As for `COC(=O)[C@]1(Cc2ccccc2)NC=C(C(=O)c2ccccc2)[C@@H]1c1cccc(C(F)(F)F)c1`, the growth turned out to be 1.04.
As for `CC(C)OC(=O)[C@H](Cc1ccccc1)N[C@H](/C=C/c1ccccc1)[C@@H](O)Cc1ccccc1`, the figure is 1.32; as for `CCN1C(=S)NC(c2ccc(F)cc2)C(C(=O)OC)=C1C` (configuration not stated), 0.917; as for `Cn1nc(-c2ccccc2)cc1N`, 1.08.
Next, `CC(C)CC1=NCCN(C)C2=C1C(c1ccc(F)cc1)N(c1ccccc1)C2=O` (configuration not stated): 1.07; `COc1ccc(Cn2nc(C(C)(C)C)cc2Nc2cc(O)cc(O)c2C(=O)N2Cc3ccccc3C2)cc1`: 0.973; `COC(=O)C1=C(C)N(Cc2cccc(C(F)(F)F)c2)C(NCc2ccc(C(F)(F)F)cc2)=NC1c1ccc(Cl)cc1` (configuration not stated): 0.811.
Next, `CNCC1CCCN(CCc2ccccc2)C1` (configuration not stated): 1.01; `CCCCNC1=NC(c2ccccc2)C(C(=O)OC)=C(C)N1Cc1ccc(C(F)(F)F)cc1` (configuration not stated): 0.958; `COC(=O)c1cc2c(c3c4ccccc4n(S(=O)(=O)c4ccccc4)c13)C(=O)N(Cc1cccc(F)c1)C2`: 1.02.
In the case of `CCCOS(=O)(=O)N(SC(=S)OCC)C(C)(C)C`, the growth was determined as 1.11.
Next, `COc1ccccc1Cn1nc2c(c1CC(C)C)C(c1ccc3c(c1)OCO3)NC2=O` (configuration not stated): 0.92; `COC(=O)[C@@H]1[C@@H](O)[C@@]2(O)c3c(OC)cc(OS(=O)(=O)c4ccc(C)cc4)cc3O[C@@]2(c2ccc(OC)cc2)[C@H]1c1ccccc1`: 1.09; `Cc1nn(Cc2ccccc2)c2c1C(c1ccc3c(c1)OCO3)NC2=O` (configuration not stated): 1.02.
Next, `COc1ccc(N2C(=O)C(Nc3ccc4c(c3)OCO4)=CC2c2ccc(C(F)(F)F)cc2)cc1` (configuration not stated): 1; `COc1ccccc1Cn1nc(CC(C)C)c2c1C(=O)NC2c1ccc(C)cc1` (configuration not stated): 0.762.
Next, `COc1ccc(-c2ccc3c(n2)CCCN3C)cc1`: 1.18.
Take `COc1ccc(-c2ccc3c(n2)CCCN3S(=O)(=O)c2ccccc2)cc1`: the growth came to 0.946.
Next, `Cc1ccc(S(=O)(=O)N2CCCC3OCCCC3=C2c2ccc3c(c2)[nH]c2ccccc23)cc1` (configuration not stated): 1.04; `Oc1c(CN2CCOCC2)cc2c(c1-c1c(O)c(CN3CCOCC3)cc3c1CCCC3)CCCC2`: 0.838; `COC(=O)C1=C(C)N(C)C(NCCc2ccccn2)=NC1c1ccc(Cl)cc1` (configuration not stated): 1.11.
As for `CCN(CC)C(=O)c1c(O)cc(O)cc1CC(=O)C(C)C`, the figure is 1.08; as for `O=C1c2ccccc2-c2c1c(O)c1ccccc1c2O`, 0.519.
Next, `COC(=O)C1=C(C)N(CCCOC(C)C)C(=S)NC1c1ccc(C(F)(F)F)cc1` (configuration not stated): 1.09.
For the compound `CO[C@@H]1[C@H](O)CC[C@]2(O)CN(c3ccc(Oc4ccccc4)cc3)[C@](C)([C@H](O)CC=C(C)C)[C@@H]12`, the growth was 0.859.
Next, `COc1ccc(N2C(=O)C3=C(C(c4ccccc4)=NCCN3C)C2c2ccc(C)cc2)cc1` (configuration not stated): 0.943; `CN1CC2CN(C(=O)c3c(O)cc(O)cc3NC3Cc4ccccc4C3)CC2C1` (configuration not stated): 0.879.
Consider `C#CCNC(=O)c1nnc2c3ccccc3n(COC)c2n1`, for which the growth was 1.06.
As for `CC(=O)OC[C@H]1O[C@H](C#Cc2cccc(F)c2)C=C[C@@H]1OC(C)=O`, the figure is 1.28.
`CC(C)(C)NS(=O)(=O)OCCCB1OC(C)(C)C(C)(C)O1`: the growth is 1.02.
In the case of `COc1ccc2c(c1)O[C@@H](c1cccc(C(F)(F)F)c1)[C@H](OC(=O)Nc1cc(OC)c(OC)c(OC)c1)C2=O`, the growth came out at 1.
As for `CS(=O)(=O)Oc1c(CC23CCCCC2=Nc2c(Cl)cccc23)occc1=O` (configuration not stated), the figure is 1.26; as for `CN(Cc1ccccn1)CC1CCCN(CCc2ccccc2)C1` (configuration not stated), 0.942; as for `C=COCCN1C=C(C(=O)OCC)C(c2ccccc2)NC1=O` (configuration not stated), 0.969.
As for `COc1cc(CC=C(C)C)c2c(=O)c3ccccc3oc2c1O`, the figure is 0.985; as for `COc1ccc(Cn2nc(C)cc2Nc2cc(O)cc(O)c2C(=O)N(C)Cc2ccccc2)cc1`, 0.931.
Regarding `CC(C)(C)C[C@@H](O)COc1cc2c(cc1C1(c3cc4c(cc3OC[C@H](O)CC(C)(C)C)OCO4)C(=O)Nc3ccc(F)cc31)OCO2`, the growth was 1.13.
Next, `COC(=O)C1=C(C)[C@@]2(C)C[C@H]3[C@@]4(C)CC[C@H](O)C(C)(C)[C@@H]4CC[C@@]3(C)OC2=C(C)C1=O`: 1.11; `COC(=O)C1=C(C)N(C)C(NCc2ccc(OC)cc2)=NC1c1ccc(F)cc1` (configuration not stated): 0.944; `COCn1c(-c2nc3nccnc3n2COC)nc2nccnc21`: 1.09.
As for `COC(=O)[C@@H]1[C@@H](O)[C@@]2(O)c3c(OC)cc(F)cc3O[C@@]2(c2ccc(Cl)cc2)[C@H]1c1ccccc1`, the figure is 1.05; as for `CC#CCOc1c(-c2ccccc2O)oc2ccccc2c1=O`, 1.14; as for `CCN1C(NCc2ccc3c(c2)OCO3)=N[C@@H](c2cccc(F)c2)C(C(=O)OC)=C1C`, 1.05.
As for `CC(C)(C)NS(=O)(=O)OC1[C@H]2C[C@@H]3C[C@@H](C[C@H]1C3)C2` (some centres not stated), the figure is 1.08.
Consider `C=C(C)C[C@H](O)COc1cc2c(cc1C1(c3cc4c(cc3OC[C@@H](O)CC(=C)C)OCO4)C(=O)Nc3cc(F)ccc31)OCO2`, for which the growth came out at 1.16.
As for `CC1(C)CN=C(c2ccccc2)C2=C(N1)C(=O)NC2c1ccc2c(c1)OCO2` (configuration not stated), the growth came out at 0.962.
On to `COC(=O)C1=C(C)N(C)C(NCC2CC2)=NC1c1ccc(C(F)(F)F)cc1` (configuration not stated), for which the growth worked out at 1.02.
As for `OC[C@@H](Cc1ccc2c(c1)OCO2)[C@@H](CO)Cc1ccc2c(c1)OCO2`, the figure is 0.925.
Next, `COc1ccc(-c2[nH]c3cc(F)cc(F)c3c(=O)c2O)cc1`: 0.648.
For `CN1CCN=C(c2ccccc2)C2=C1C(=O)N(c1ccccc1)C2c1ccc(Br)cc1` (configuration not stated), the growth is 0.887.
Next, `COc1ccc(N2C(=O)c3nn(C)c(-c4ccccc4)c3C2c2ccc(Br)cc2)cc1` (configuration not stated): 1.03; `Clc1cc2ccccc2c(-c2ccccc2)n1`: 0.992; `C=Cc1cc(O)c2c(=O)c3ccccc3oc2c1`: 1.11.
Next, `COc1ccc(-c2cnc3c(-c4ccccn4)cnn3c2N)cc1`: 1.02; `Cc1cc(C)cc(-n2nc3c(c2-c2ccccc2)C(c2ccc4c(c2)OCO4)NC3=O)c1` (configuration not stated): 0.899; `COC(=O)c1nnc(C(=O)OC)c2c1c1ccccc1n2S(=O)(=O)c1ccc(C)cc1`: 1.33.
Next, `COc1ccc(N2C(=O)c3[nH]nc(CC(C)C)c3C2c2cncc(OC)c2)cc1` (configuration not stated): 1.55.
Take `COC[C@H](O)/C=C/[C@]1(C)CCCC[C@H]1NC(=O)OC`: the growth is 1.11.
Next, `C=CCC12OC1C1(OCCCO1)C(CO[Si](c1ccccc1)(c1ccccc1)C(C)(C)C)=C(Br)C2=O` (configuration not stated): 1.19; `COC(=O)C1=C(C)NC(=O)NC1c1ccc(OC)cc1` (configuration not stated): 0.99; `C=CCN1C(=O)C2=C(C(CC(C)C)=NCC(C)(C)N2)C1c1ccccc1` (configuration not stated): 1.06.
As for `CCOC(=O)c1cc2nc(SC)[nH]c(=O)c2c(C(=O)OCC)n1`, the figure is 1.25; as for `COc1cc(O)c2c(=O)c3c(CC=C(C)C)ccc(O)c3oc2c1`, 0.943; as for `O=c1cccc(CCCc2ccccc2)[nH]1`, 0.996.
For `COC(=O)[C@]12Oc3ccc(I)c(O)c3C(=O)C1=C(OC)CC[C@@H]2O`, the growth was 1.11.
As for `COC(=O)[C@@H]1[C@@H](c2ccccc2)[C@]2(c3ccc(OC)cc3)Oc3cc(OC)cc(OC)c3[C@@]23NC(c2ccc(N(C)C)cc2)=N[C@@]13O`, the figure is 1.09.
On to `COC(=O)[C@@]12Oc3ccc(-c4cccc(C(=O)N(C)OC)c4)c(O)c3C(=O)C1=C(N)C[C@H](C)[C@H]2O`, for which the growth amounted to 1.12.
Next, `CC(C)CC1=NCCNC2=C1C(c1ccc(F)cc1)N(Cc1ccccc1)C2=O` (configuration not stated): 0.956.
Next, `C[C@@]12C(=O)[C@]3(C)C=C[C@@]1(C)OC[C@]21C=C[C@H]3O1`: 0.979; `COC[C@@H](O)[C@H]1OCc2oc3ccccc3c2[C@@H]1/C=C/c1ccccc1`: 0.832.
As for `COc1cccc(N2C(=O)c3[nH]nc(CC(C)C)c3C2c2ccsc2)c1` (configuration not stated), the figure is 1.09; as for `COC(=O)[C@H]1C(=O)[C@@]2(Nc3ccccc3)c3c(OC)cc(OC)cc3O[C@@]2(c2ccc(OC)cc2)[C@@H]1c1ccccc1`, 0.985.
Regarding `Cc1ccc2[nH]c3nc4cccnc4cc3c2c1`, the growth came to 0.76.
Next, `COc1ccc(N2C(=O)c3[nH]nc(CC(C)C)c3C2c2ccc(F)cc2)cc1` (configuration not stated): 0.896; `C/C=C/C=C/C(=O)c1cc(C)c(OCC(=O)O)c(C)c1O`: 1.47.
Next, `CC#CCN1C(=O)NC(c2ccccc2)C(CO)=C1C` (configuration not stated): 1.13; `CC(=O)C1=C(C)N(Cc2ccc(Cl)cc2)C(=S)NC1c1ccc(Cl)cc1` (configuration not stated): 0.923; `CC(=O)C1=C(C)N(Cc2cccc(Cl)c2)C(=S)NC1c1cccc(Br)c1` (configuration not stated): 1.47.
Next, `CC(C)(O)Cn1nc2cc1-c1cccc(c1)C(=O)NCC1(CCCCC1)CC(=O)N[C@@H](c1ccccc1)COC2`: 0.94; `CCN1C(=O)NC(c2ccccc2)C(C(=O)OC)=C1C` (configuration not stated): 1.37.
With `COC(=O)CC/C=C/[C@]12Oc3cc(OC)c4c(C)cc(O)c5c4c3[C@@H](OC5=O)[C@H]1C[C@@H](C)O2`, the growth stood at 1.08.
Next, `COc1cc2c(c(OC)c1OC)[C@@]1(c3ccccc3)CCCC[C@H]1C2NC(=O)C(F)(F)F` (some centres not stated): 0.806.
